From a collection of fitness landscapes (doi:10.1016/j.celrep.2020.107928) come the findings set out here.

B1: Caulobacter ParB omega fusion; a variant is named by its letters at X, in order, B8GW30 (parent)
chain: MESVVVGEPGMSEGRRGLGRGLSALLGEVDAAPAQAPGEQLGGSREAPIEILQRNPDQPRRTFREEDLEDLSNSIREKGVLQPILVRPSPDTAGEYQIVAGERAWRAAQRAGLKTVPIMVRELDDLAVLEIGIIENVQRADLNVLEEALSYKVLMEKFERTQENIAQTIGKSXSHVANXMRLLXLPDEVQSYLVSGELTAXHARAIAAAADPVALAKQIIEGGLSVRETEALARKAPNLSAGKSKGGRPPRVKDTDTQALESDLSSVLGLDVSIDHRGSTGTLTITYATLEQLDDLCNRLTRGI

Whole data set: some 81,000 sequences, median “one-hybrid fitness for binding parS DNA” near -0.17, cut for the highest 2% near 0.51. This is one part of the list.

The variants in this assay derive from B1. The assay can be described thus: one-hybrid fitness for binding parS DNA (scaled: cognate 1, non-cognate 0); higher = stronger binding. To be noted: with parS DNA site. A digest of the protocol:
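On M9-minus-histidine containing 0.1 mM IPTG and 5 mM 3-AT, E. coli USO cells with a HIS3 reporter, site 19 bp from the promoter, grew 48 hours at 37°C to select Caulobacter ParB libraries randomised at four specificity codons. Plasmids from before and after were Illumina-sequenced, with three replicate libraries pooled and variants under 10 reads left out. Fitness is the log change in variant-to-wild-type read ratio, rescaled against cognate and non-cognate.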
As to AATK, the “one-hybrid fitness for binding parS DNA” value was no more than 0.2.
With CWAL, the “one-hybrid fitness for binding parS DNA” value is no more than 0.2.
In the case of SGLW, the “one-hybrid fitness for binding parS DNA” value was no more than 0.2.
Under IGSA stands no more than 0.2.
For TRQH, the “one-hybrid fitness for binding parS DNA” value was no more than 0.2.
As to LSFE, the “one-hybrid fitness for binding parS DNA” value is no more than 0.2.
Under ETQC stands no more than 0.2.
For the variant KPSV, the “one-hybrid fitness for binding parS DNA” value is no more than 0.2.
As to SRDY, the “one-hybrid fitness for binding parS DNA” value was no more than 0.2.
For YVWS, the “one-hybrid fitness for binding parS DNA” value is no more than 0.2.
On to YAHY, for which the “one-hybrid fitness for binding parS DNA” value was no more than 0.2.
Under PKHV stands no more than 0.2.
Take TRVN: the “one-hybrid fitness for binding parS DNA” value is no more than 0.2.
With GDGS the figure was no more than 0.2; with DTNC, no more than 0.2.
In the case of QCCM, the “one-hybrid fitness for binding parS DNA” value is no more than 0.2.
As to QMHA, the “one-hybrid fitness for binding parS DNA” value is no more than 0.2.
For WIPG, the “one-hybrid fitness for binding parS DNA” value is no more than 0.2.
Under TDHT stands no more than 0.2.
As to CPMN, the “one-hybrid fitness for binding parS DNA” value was no more than 0.2.
As for YINH, the “one-hybrid fitness for binding parS DNA” value is no more than 0.2.
Under RIAY stands 0.484; under CRHL, no more than 0.2; under HFVL, no more than 0.2.
In the case of YLWS, the “one-hybrid fitness for binding parS DNA” value is no more than 0.2.
Under RGGN stands no more than 0.2; under QCVA, no more than 0.2.
As for PKYC, the “one-hybrid fitness for binding parS DNA” value is no more than 0.2.
With KATC, the “one-hybrid fitness for binding parS DNA” value was no more than 0.2.
AEKN: the “one-hybrid fitness for binding parS DNA” value was no more than 0.2.
In the case of HINQ, the “one-hybrid fitness for binding parS DNA” value is no more than 0.2.
Turning to EMGT, the “one-hybrid fitness for binding parS DNA” value was no more than 0.2.
Take QTPP: the “one-hybrid fitness for binding parS DNA” value was no more than 0.2.
For the variant GFCR, the “one-hybrid fitness for binding parS DNA” value was no more than 0.2.
With RECT the figure was no more than 0.2; with QLLR, no more than 0.2; with VRVH, no more than 0.2.
In the case of YGIS, the “one-hybrid fitness for binding parS DNA” value was no more than 0.2.
For DVAE, the “one-hybrid fitness for binding parS DNA” value is no more than 0.2.
Regarding ATMV, the “one-hybrid fitness for binding parS DNA” value is no more than 0.2.
With RHKD the figure was no more than 0.2; with EQPV, no more than 0.2; with KKNC, no more than 0.2.
Under RNRG stands 0.94.
With QCFS, the “one-hybrid fitness for binding parS DNA” value is no more than 0.2.
In the case of IVES, the “one-hybrid fitness for binding parS DNA” value was no more than 0.2.
With MNLN, the “one-hybrid fitness for binding parS DNA” value was no more than 0.2.
Under VNCV stands no more than 0.2.
Regarding GYWS, the “one-hybrid fitness for binding parS DNA” value was no more than 0.2.
Consider RFQP, for which the “one-hybrid fitness for binding parS DNA” value is no more than 0.2.
On to PHTT, for which the “one-hybrid fitness for binding parS DNA” value was no more than 0.2.
In the case of QYVR, the “one-hybrid fitness for binding parS DNA” value is no more than 0.2.
Under WTTV stands no more than 0.2; under RGLH, no more than 0.2.
In the case of SGYI, the “one-hybrid fitness for binding parS DNA” value was no more than 0.2.
For the variant VENT, the “one-hybrid fitness for binding parS DNA” value is no more than 0.2.
Turning to CGQS, the “one-hybrid fitness for binding parS DNA” value was no more than 0.2.
On to AFNV, for which the “one-hybrid fitness for binding parS DNA” value is no more than 0.2.
In the case of SVVS, the “one-hybrid fitness for binding parS DNA” value was no more than 0.2.
Under LITV stands no more than 0.2; under SSYC, no more than 0.2.
On to NIKR, for which the “one-hybrid fitness for binding parS DNA” value was no more than 0.2.
With AEDG the figure was no more than 0.2.
Under QMPP stands no more than 0.2.
Under YKYL stands no more than 0.2.
As to LFDR, the “one-hybrid fitness for binding parS DNA” value is no more than 0.2.
For LGGF, the “one-hybrid fitness for binding parS DNA” value is no more than 0.2.
For WSNE, the “one-hybrid fitness for binding parS DNA” value is no more than 0.2.
WMLT: the “one-hybrid fitness for binding parS DNA” value was no more than 0.2.
With CAVR, the “one-hybrid fitness for binding parS DNA” value is no more than 0.2.
Consider PPMI, for which the “one-hybrid fitness for binding parS DNA” value was no more than 0.2.
In the case of SINY, the “one-hybrid fitness for binding parS DNA” value is no more than 0.2.
Under YHQS stands no more than 0.2; under HNHT, no more than 0.2; under IRNQ, no more than 0.2.
Consider QCSV, for which the “one-hybrid fitness for binding parS DNA” value was no more than 0.2.
QVSK: the “one-hybrid fitness for binding parS DNA” value was no more than 0.2.
Turning to QRTF, the “one-hybrid fitness for binding parS DNA” value was no more than 0.2.
Take YYNN: the “one-hybrid fitness for binding parS DNA” value was no more than 0.2.
Take PQQY: the “one-hybrid fitness for binding parS DNA” value is no more than 0.2.
With ILVG the figure was no more than 0.2; with QVVT, no more than 0.2; with EVCS, no more than 0.2.
Turning to TLPY, the “one-hybrid fitness for binding parS DNA” value was no more than 0.2.
For the variant HYKK, the “one-hybrid fitness for binding parS DNA” value is no more than 0.2.
Turning to DIII, the “one-hybrid fitness for binding parS DNA” value was no more than 0.2.
In the case of WIFS, the “one-hybrid fitness for binding parS DNA” value is no more than 0.2.
In the case of PPFL, the “one-hybrid fitness for binding parS DNA” value is no more than 0.2.
With SIMP, the “one-hybrid fitness for binding parS DNA” value was no more than 0.2.
For QWPR, the “one-hybrid fitness for binding parS DNA” value is no more than 0.2.
QETG: the “one-hybrid fitness for binding parS DNA” value was no more than 0.2.
For the variant RLDP, the “one-hybrid fitness for binding parS DNA” value is no more than 0.2.
For the variant QKSE, the “one-hybrid fitness for binding parS DNA” value was no more than 0.2.
Under YTNG stands no more than 0.2; under SCKE, no more than 0.2; under SNRT, no more than 0.2.
In the case of MPQI, the “one-hybrid fitness for binding parS DNA” value was no more than 0.2.
Take SCNS: the “one-hybrid fitness for binding parS DNA” value is no more than 0.2.
For QTLM, the “one-hybrid fitness for binding parS DNA” value was no more than 0.2.
Turning to THYT, the “one-hybrid fitness for binding parS DNA” value was no more than 0.2.
In the case of KLPA, the “one-hybrid fitness for binding parS DNA” value was no more than 0.2.
For CWKT, the “one-hybrid fitness for binding parS DNA” value was no more than 0.2.
With IPER the figure was no more than 0.2; with WYPQ, no more than 0.2; with TAPL, no more than 0.2.
With QCVM the figure was no more than 0.2.
With IMRT, the “one-hybrid fitness for binding parS DNA” value is no more than 0.2.
With MTYR the figure was no more than 0.2; with GQCR, no more than 0.2.
With SEHS the figure was no more than 0.2.
Take RVGA: the “one-hybrid fitness for binding parS DNA” value was 0.565.
For the variant ELIS, the “one-hybrid fitness for binding parS DNA” value is no more than 0.2.
As for RYRN, the “one-hybrid fitness for binding parS DNA” value was 0.375.
Take TVRC: the “one-hybrid fitness for binding parS DNA” value is no more than 0.2.
With GHRK, the “one-hybrid fitness for binding parS DNA” value is no more than 0.2.
For the variant PQFG, the “one-hybrid fitness for binding parS DNA” value was no more than 0.2.
For the variant YDKN, the “one-hybrid fitness for binding parS DNA” value was no more than 0.2.
As for KMFS, the “one-hybrid fitness for binding parS DNA” value was no more than 0.2.
As to LCFS, the “one-hybrid fitness for binding parS DNA” value was no more than 0.2.
TFLR: the “one-hybrid fitness for binding parS DNA” value is no more than 0.2.
NHNY: the “one-hybrid fitness for binding parS DNA” value was no more than 0.2.
With VALF, the “one-hybrid fitness for binding parS DNA” value was no more than 0.2.
In the case of SRPC, the “one-hybrid fitness for binding parS DNA” value is no more than 0.2.
For RFRF, the “one-hybrid fitness for binding parS DNA” value came to 0.25.
As to NLDT, the “one-hybrid fitness for binding parS DNA” value was no more than 0.2.
As to RIHW, the “one-hybrid fitness for binding parS DNA” value was 0.231.
Under SPRM stands no more than 0.2; under VRTR, no more than 0.2; under GSVS, no more than 0.2.
In the case of THWR, the “one-hybrid fitness for binding parS DNA” value is no more than 0.2.
Turning to GKAK, the “one-hybrid fitness for binding parS DNA” value was no more than 0.2.
For KWPI, the “one-hybrid fitness for binding parS DNA” value was no more than 0.2.
Take SPEL: the “one-hybrid fitness for binding parS DNA” value is no more than 0.2.
Turning to VVMC, the “one-hybrid fitness for binding parS DNA” value is no more than 0.2.
For EDNS, the “one-hybrid fitness for binding parS DNA” value is no more than 0.2.
Consider IVLT, for which the “one-hybrid fitness for binding parS DNA” value is no more than 0.2.
On to YVHA, for which the “one-hybrid fitness for binding parS DNA” value was no more than 0.2.
Consider ILPP, for which the “one-hybrid fitness for binding parS DNA” value is no more than 0.2.
With PHVK, the “one-hybrid fitness for binding parS DNA” value is no more than 0.2.
In the case of AYLE, the “one-hybrid fitness for binding parS DNA” value was no more than 0.2.
As to HQCR, the “one-hybrid fitness for binding parS DNA” value is no more than 0.2.
On to MPLR, for which the “one-hybrid fitness for binding parS DNA” value is no more than 0.2.
Consider VFSL, for which the “one-hybrid fitness for binding parS DNA” value is no more than 0.2.
Take KMWR: the “one-hybrid fitness for binding parS DNA” value is no more than 0.2.
HYLC: the “one-hybrid fitness for binding parS DNA” value was no more than 0.2.
As for QPAP, the “one-hybrid fitness for binding parS DNA” value is no more than 0.2.
With ASID, the “one-hybrid fitness for binding parS DNA” value is no more than 0.2.
In the case of HTYV, the “one-hybrid fitness for binding parS DNA” value is no more than 0.2.
As for YAPL, the “one-hybrid fitness for binding parS DNA” value was no more than 0.2.
As for GWDR, the “one-hybrid fitness for binding parS DNA” value was no more than 0.2.
On to QLHS, for which the “one-hybrid fitness for binding parS DNA” value is no more than 0.2.
In the case of HEIV, the “one-hybrid fitness for binding parS DNA” value was no more than 0.2.
With QNVM, the “one-hybrid fitness for binding parS DNA” value was no more than 0.2.
